Results: US20240400720A1 (NOVIMMUNE S A, published 2024)

T1: human CD19 on Raji cells (human, UniProt P15391 20-556)
T1 construct: whole, on cells; also called native form of hCD19
T1 sequence (looked up): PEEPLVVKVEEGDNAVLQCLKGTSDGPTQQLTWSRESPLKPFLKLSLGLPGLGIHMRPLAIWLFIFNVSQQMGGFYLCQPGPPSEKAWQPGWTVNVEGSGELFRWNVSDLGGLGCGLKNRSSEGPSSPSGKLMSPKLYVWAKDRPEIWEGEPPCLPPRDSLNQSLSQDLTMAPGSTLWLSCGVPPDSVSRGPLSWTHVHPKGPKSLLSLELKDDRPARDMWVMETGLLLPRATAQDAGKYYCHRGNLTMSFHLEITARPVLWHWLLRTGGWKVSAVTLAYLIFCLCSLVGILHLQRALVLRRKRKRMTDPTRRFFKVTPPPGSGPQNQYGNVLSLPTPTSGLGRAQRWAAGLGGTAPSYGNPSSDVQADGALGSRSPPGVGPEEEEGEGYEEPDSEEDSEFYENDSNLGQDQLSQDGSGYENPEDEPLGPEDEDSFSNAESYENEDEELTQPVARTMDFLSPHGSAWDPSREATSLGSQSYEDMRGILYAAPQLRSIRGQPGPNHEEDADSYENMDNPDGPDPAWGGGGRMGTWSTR


How the values were obtained:
[1] = target: T2, human CD47 on the cell surface (human, UniProt Q08722); experiment: FACS on DS-1 cells (CD19-negative, CD47-positive), human IgG1 format
T2 construct: whole, on cells; also called huCD47; native CD47

[2] = target: T1, human CD19 on Raji cells; experiment: FACS on Raji cells (CD19-positive, CD47-positive), human IgG1 format, 0.01-10 µg/ml
[3] = target: T2, human CD47 on the cell surface; experiment: as above

| binding result [1] | binding result [2] | binding result [3] | Binder |
| --- | --- | --- | --- |
| no binding (tested: 10 µg/ml) | binds |  | CD19 monovalent C2 (other, one CD19 arm and one dummy arm, human IgG1; also called monovalent antibody C2) common heavy chain: [no letters for about 120 residues][no letters for about 100 residues][no letters for human IgG1 Fc] kappa dummy light chain 2: EIVMTQSPATLSVSPGERATLSCRASQTVKNNLAWYQQKPGQAPRLLIYGASTRATGIPARFSGSGSGTEFTLTISSLQSEDFAVYYCQQYNNWLPINPYTFGQGTKVEIKRTVAAPSVFIFPPSDEQLKSGTASVVCLLNNFYPREAKVQWKVDNALQSGNSQESVTEQDSKDSTYSLSSTLTLSKADYEKHKVYACEVTHQGLSSPVTKSFNRGEC lambda light chain (C2, anti-CD19): NFMLTQPHSVSESPGKTVTISCTRSSGSIEDKYVQWYQQRPGSSPTIVIYYDNERPSGVPDRFSGSIDSSSNSASLTISGLKTEDEADYYCQTYDQSLYGWVFGGGTKLTVLGQPKAAPSVTLFPPSSEELQANKATLVCLISDFYPGAVTVAWKADSSPVKAGVETTTPSKQSNNKYAASSYLSLTPEQWKSHRSYSCQVTHEGSTVEKTVAPTECS |
|  |  | binds | CD47 monovalent 5A3M5 (other, one CD47 arm and one dummy arm; also called monovalent antibody 5A3-M5) common heavy chain: [no letters for about 120 residues][no letters for about 100 residues][no letters for human IgG1 Fc] kappa light chain (5A3-M5, anti-CD47): DIQMTQSPSSLSASVGDRVTITCQASQDINKYLNWYQQKPGKAPKLLIYGASRLETGVPSRFSGSGSGTDFTFTISSLQPEDIATYYCQQKHPRYPRTFGQGTKVEIKRTVAAPSVFIFPPSDEQLKSGTASVVCLLNNFYPREAKVQWKVDNALQSGNSQESVTEQDSKDSTYSLSSTLTLSKADYEKHKVYACEVTHQGLSSPVTKSFNRGEC lambda dummy light chain 1: QSVLTQPPSVSAAPGQKVTISCSGSSSNIETGSVSWYQQLPGTAPKLLIYDNNKRPSGIPDRFSGSKSGTSATLGITGLQTGDEADYYCGTWDDSLPGWVFGGGTKLTVLGQPKAAPSVTLFPPSSEELQANKATLVCLISDFYPGAVTVAWKADSSPVKAGVETTTPSKQSNNKYAASSYLSLTPEQWKSHRSYSCQVTHEGSTVEKTVAPTECS |
